Experimental data: patent US8980952B2, “Methods for treating brain swelling with a compound that blocks a non-selective cation channel” (University of Maryland, Baltimore, priority 2002, dated 2015)

Assays:
[1] = molecular target: T1, NCCa-ATP channel (Rattus norvegicus, UniProt Q09429); assay type: cell-based; design: freshly isolated reactive astrocytes are studied in a native state immediately after their isolation from the brain; endogenous in cells; host or cells: freshly isolated native reactive astrocytes (NRAs, type R1) from injured adult rat brain (gelatin sponge implant); cell-attached, inside-out and outside-out patches
[2] = molecular target: T1, NCCa-ATP channel; experiment: biochemical
[3] = molecular target: T1, NCCa-ATP channel
[4] = molecular target: T1, NCCa-ATP channel; experiment: Excised patch recording of NCCa-ATP channel with SUR ligands (glibenclamide, tolbutamide, diazoxide); assay type: biochemical; design: freshly isolated reactive astrocytes are studied in a native state immediately after their isolation from the brain; endogenous in cells; host or cells: freshly isolated native reactive astrocytes (NRAs, type R1) from injured adult rat brain (gelatin sponge implant); cell-attached, inside-out and outside-out patches; settings: for open channel probability (n•Po): 0.63 before drug
[5] = diazoxide 100 μM, cell-attached patches

T1 sequence (Q09429 whole entry): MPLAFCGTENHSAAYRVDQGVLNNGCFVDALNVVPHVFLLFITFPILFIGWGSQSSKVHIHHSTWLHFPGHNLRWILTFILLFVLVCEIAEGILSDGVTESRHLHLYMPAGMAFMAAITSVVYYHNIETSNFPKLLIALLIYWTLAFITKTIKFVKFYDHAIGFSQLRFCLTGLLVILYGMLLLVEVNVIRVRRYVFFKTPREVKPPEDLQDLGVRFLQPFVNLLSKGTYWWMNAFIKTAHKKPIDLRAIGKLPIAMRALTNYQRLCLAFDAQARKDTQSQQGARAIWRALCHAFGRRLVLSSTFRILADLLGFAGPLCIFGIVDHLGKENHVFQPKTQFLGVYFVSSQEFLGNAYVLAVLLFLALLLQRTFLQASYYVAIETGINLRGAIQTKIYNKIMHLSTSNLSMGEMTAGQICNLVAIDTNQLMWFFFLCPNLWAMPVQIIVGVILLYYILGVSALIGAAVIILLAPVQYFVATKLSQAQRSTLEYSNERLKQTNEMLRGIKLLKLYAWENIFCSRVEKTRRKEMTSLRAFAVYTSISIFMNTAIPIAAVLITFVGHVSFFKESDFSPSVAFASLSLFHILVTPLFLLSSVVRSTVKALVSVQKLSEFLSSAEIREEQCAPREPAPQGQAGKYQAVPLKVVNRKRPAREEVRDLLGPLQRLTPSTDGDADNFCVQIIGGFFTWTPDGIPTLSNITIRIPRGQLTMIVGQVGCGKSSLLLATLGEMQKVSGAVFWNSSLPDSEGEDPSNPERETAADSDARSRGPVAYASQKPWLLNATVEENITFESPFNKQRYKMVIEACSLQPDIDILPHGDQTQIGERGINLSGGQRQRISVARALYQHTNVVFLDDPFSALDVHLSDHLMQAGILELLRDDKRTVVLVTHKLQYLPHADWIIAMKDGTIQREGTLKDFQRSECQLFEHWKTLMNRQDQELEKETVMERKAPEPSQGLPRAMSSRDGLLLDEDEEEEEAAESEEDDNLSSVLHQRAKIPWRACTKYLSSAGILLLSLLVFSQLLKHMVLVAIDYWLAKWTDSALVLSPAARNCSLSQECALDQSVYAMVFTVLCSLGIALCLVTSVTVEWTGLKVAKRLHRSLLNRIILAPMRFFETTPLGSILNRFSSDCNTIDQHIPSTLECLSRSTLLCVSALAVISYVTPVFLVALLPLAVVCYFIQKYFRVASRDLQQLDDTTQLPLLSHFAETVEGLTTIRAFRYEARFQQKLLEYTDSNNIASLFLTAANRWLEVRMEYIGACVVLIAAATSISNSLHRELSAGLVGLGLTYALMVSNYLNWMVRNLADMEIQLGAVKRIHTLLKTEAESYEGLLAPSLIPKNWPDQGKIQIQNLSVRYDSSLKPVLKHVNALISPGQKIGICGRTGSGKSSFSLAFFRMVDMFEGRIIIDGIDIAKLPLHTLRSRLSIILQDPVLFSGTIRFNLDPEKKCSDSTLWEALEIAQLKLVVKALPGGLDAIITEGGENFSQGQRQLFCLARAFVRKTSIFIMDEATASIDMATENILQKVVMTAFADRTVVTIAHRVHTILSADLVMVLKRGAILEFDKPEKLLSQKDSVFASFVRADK

**Q.** “charybdotoxin: toxin partially blocking large conductance Ca2+-activated K+ channel currents” was tested. Which “Block of NaN3-induced single channel currents” value (“Block” below) [1] did it give?
**A.** not blocked

**Q.** For NC1=N[C@H](O)[C@H]2[C@H]3O[C@]4(O)O[C@@H]([C@@H](O)[C@@]2(N1)[C@@H]4O)[C@]3(O)CO [tetrodotoxin], which “Block” value [1] is on record?
**A.** not blocked

**Q.** What does the source list for Nc1ncnc2c1ncn2[C@@H]1O[C@H](COP(=O)(O)OP(=O)(O)OP(=O)(O)O)[C@@H](O)[C@H]1O [ATP, adenosine triphosphate]?
**A.** EC50 [2]: 0.79 µM; IC50 [2]: 0.79 µM; Effect on channel activity / availability ([3]; 1 mM on cytoplasmic side, inside-out patch): profound diminution in channel activity; Hill coefficient ([3]; block by [ATP]i): 1

**Q.** With CC1(C)Oc2ccc(C#N)cc2C(N2CCCC2=O)C1O (centres unmarked) [cromakalin] as the molecule, how does the “Activation of the 35 pS channel by SUR activators” value (shortened to “Activation of the 35 pS channel”) [1] read?
**A.** no effect

**Q.** Which “concentration at which channel activity is completely lost” value [4] does the source give for CCCCNC(=O)NS(=O)(=O)c1ccc(C)cc1 [tolbutamide] here?
**A.** > 300 µM

**Q.** What about the “open channel probability (n•Po)” value ([4]; 3 μM tolbutamide) of the same molecule?
**A.** 0.44

**Q.** What about the “open channel probability (n•Po)” value ([4]; 30 μM tolbutamide) of the same molecule?
**A.** 0.09

**Q.** What about the “Closed channel dwell times” value ([4]; 3 and 30 μM tolbutamide) of the same molecule?
**A.** increased in duration and frequency

**Q.** What about the “open dwell time values” ([4]; 3 and 30 μM tolbutamide) of the same molecule?
**A.** not appreciably affected

**Q.** And the EC50 ([4]; Cs+ charge carrier, dose-response of channel block, read-out: half maximum inhibition (EC50))?
**A.** 16.1 µM

**Q.** And the IC50 ([4]; FIG. 11B, means from 5 patches, read-out: half-maximum inhibition of open channel probability)?
**A.** 16.1 µM

**Q.** What about the Hill coefficient ([4]; inhibition by sulfonylureas) of the same molecule?
**A.** 1.3 and 1

**Q.** How did the “Block” value [1] turn out when CC[N+](CC)(CC)CC.[Cl-] [TEA, tetraethylammonium chloride] was run?
**A.** not blocked

**Q.** What does the source list for [Ca+2] [Ca^2+]?
**A.** Activation [Ca^2+] [3]: <1.0 µM; Hill coefficient [3]: 1.5

**Q.** Which “Activation of the 35 pS channel” value [1, 5] does the source give for CC(N/C(=N\C#N)Nc1ccncc1)C(C)(C)C (centres unmarked) [pinacidil] here?
**A.** no effect

**Q.** Which results are given for Nc1ncnc2c1ncn2[C@@H]1O[C@H](COP(=O)(O)O)[C@@H](O)[C@H]1O [AMP]?
**A.** ADP AMP channel effect [3]: No channel effect; Effect on channel activity / availability [3]: unaffected

**Q.** How did the “Block” value [1] turn out when “iberiotoxin: toxin partially blocking large conductance Ca2+-activated K+ channel currents (QFTDVDCSVSKECWSVCKDLFGVDRGKCMGKKCRCYQ)” was run?
**A.** not blocked

**Q.** How did the “Activation of the 35 pS channel” value [1, 5] turn out when CC1=NS(=O)(=O)c2cc(Cl)ccc2N1 [diazoxide] was run?
**A.** activates the 35 pS channel

**Q.** Which results are given for Nc1ncnc2c1ncn2[C@@H]1O[C@H](COP(=O)(O)OP(=O)(O)O)[C@@H](O)[C@H]1O [ADP]?
**A.** ADP AMP channel effect [3]: No channel effect; Effect on channel activity / availability [3]: unaffected

**Q.** How did the “Block” value [1] turn out when Nc1ccncc1 [4-AP, 4-aminopyridine] was run?
**A.** not blocked

Values joined by “and” are separate entries in the source; they are usually repeats but may differ in a detail not shown here. Equal entries are not always repeated. Where two headings read alike, the source gives them in different places.
